In PubChem BioAssay AID624417 (National Center for Advancing Translational Sciences (NCATS), 2012):
About 6,400 (1.6%) of roughly 410,000 compounds were called active. This list was built around the results that the source calls inconclusive (neither active nor inactive); the mix of calls is not that of the screen. Calls come from the whole dose curve; as a rule, active = well fitted inhibition curve with a large enough effect; inconclusive = small, poorly fitted or top-dose-only effect; inactive = no such curve, though single readings can be large or run the other way. No potency is given beside an inconclusive call; the fits are too rough.

Biological target: Glucagon-like peptide 1 receptor (Homo sapiens) (UniProt P43220)
Experiment: qHTS of GLP-1 Receptor Inverse Agonists (Inhibition Mode); note: nearly all actives have a fitted effect of over 55% in size
Settings: HEK293 GLP-1R CRE-luciferase, luminescence, 24 h, GLP-1R form is constitutively active; series mostly up to 38.3 µM
In short: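 Using stably transfected HEK293 (constitutively active GLP-1R, cAMP-luciferase reporter), compounds were incubated 24 hr and luciferase measured by luminescence.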
Potency is the fitted concentration of half-maximal effect; tags give direction and shape of the fitted curve.

Chain of UniProt P43220 (P43220 whole entry, looked up): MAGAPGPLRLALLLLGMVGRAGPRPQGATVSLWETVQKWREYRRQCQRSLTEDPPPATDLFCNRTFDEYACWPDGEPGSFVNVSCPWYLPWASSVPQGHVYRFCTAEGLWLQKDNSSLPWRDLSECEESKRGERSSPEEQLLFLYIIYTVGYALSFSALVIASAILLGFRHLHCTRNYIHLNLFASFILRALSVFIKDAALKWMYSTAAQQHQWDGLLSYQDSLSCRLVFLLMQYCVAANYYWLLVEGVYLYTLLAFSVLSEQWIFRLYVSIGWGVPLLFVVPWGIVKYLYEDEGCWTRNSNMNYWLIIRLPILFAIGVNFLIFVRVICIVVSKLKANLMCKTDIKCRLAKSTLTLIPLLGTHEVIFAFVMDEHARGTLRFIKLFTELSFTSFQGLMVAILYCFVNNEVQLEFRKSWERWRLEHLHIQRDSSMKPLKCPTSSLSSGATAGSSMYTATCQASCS

Row | SMILES | Potency
1 | S=c1[nH]ncn1/N=C/c1cccc(Oc2ccccc2)c1 | inactive
2 | O=C(CSc1nnc(-c2ccccn2)n1-c1ccccc1)Nc1ccc2c(c1)OCO2 | inconclusive [inhibitor, single point]
3 | CC(C)c1cccc(-c2csc(C(O)c3ccccc3)n2)c1 (stereo unspecified) | inconclusive [inhibitor, single point]
4 | CCCNC(=O)C1(C)CCCN(C(=O)C2(c3ccc(Cl)cc3)CCCC2)C1 (stereo unspecified) | inconclusive [inhibitor, single point]
5 | COc1ccc(NC(=O)c2cc3c([nH]c4ccccc43)c(C)n2)cc1 | inconclusive [inhibitor, partial curve, poor fit]
6 | O=C(COc1ccccc1)Nc1cccc(-c2nc3ccccc3[nH]2)c1 | inconclusive [inhibitor, single point]
7 | CCOc1cc2c(cc1OCC)C(CC(=O)O)N(C(=O)Nc1ccc(Br)c(C)c1)CC2 (stereo unspecified) | inactive
8 | CCCCOc1ccc(C(=O)NCCc2sc3nc(-c4ccc(OC)cc4)nn3c2C)cc1 | inactive
9 | CCOC(=O)CC1(NC(=O)C2CCC(=O)N(CCc3ccc(OC)cc3)C2)CCCCC1 (stereo unspecified) | inconclusive [inhibitor, single point]
10 | CC(=O)Nc1ccccc1N(C)S(=O)(=O)c1ccc(C)cc1 | inconclusive [inhibitor, partial curve, poor fit]
11 | Oc1ccc2nc(Cc3ccccc3)[nH]c2c1 | inactive
12 | COCCCNCC(=O)c1c(N)n(Cc2ccccc2)c(=O)n(C)c1=O | inconclusive [inhibitor, single point]
13 | Cn1cnc([N+](=O)[O-])c1Sc1ccc(C(C)(C)C)cc1 | inconclusive [inhibitor, single point]
14 | O=C(O)c1ccccc1NS(=O)(=O)c1cccc(NS(=O)(=O)c2cc(Br)ccc2Br)c1 | inactive
15 | COc1ccc(Cl)cc1NC(=O)CSc1nc2c(oc3ccccc32)c(=O)n1Cc1ccco1 | inactive
16 | S=C(Nc1ccc(Cl)cc1Cl)NC1CCN(Cc2ccccc2)CC1 | inconclusive [inhibitor, partial curve, poor fit]
17 | COc1ccc(C(=O)Nc2ccc(N3CCCCCC3)cc2)cc1S(=O)(=O)N1CCOCC1 | inconclusive [inhibitor, full curve]
18 | COC(=O)c1ccc(Cn2c(C)c(C(=O)NCc3ccc(Cl)c(Cl)c3)sc2=O)o1 | inconclusive [inhibitor, single point]
19 | Cc1cccc(-c2nc3scc(CCNS(=O)(=O)c4ccc(F)c(C(F)(F)F)c4)n3n2)c1 | inactive
20 | O=C1c2ccccc2C(=O)N1CCc1csc(-c2ccc(F)cc2)n1 | inactive
21 | O=C(c1ccco1)N1CCN(Cc2cccc3ccccc23)CC1 | inconclusive [inhibitor, single point]
22 | COc1ccc(-c2c(C(F)(F)F)[nH]n3c(=O)cc(-c4ccccc4)nc23)cc1 | inactive

Row | SMILES | Potency
23 | CCCNCc1cc(OC)c(OCc2ccccc2)cc1Br | inconclusive [inhibitor, partial curve, poor fit]
24 | CCOC(=O)c1ccc(NC(=O)CNS(=O)(=O)c2ccccc2)cc1 | inconclusive [inhibitor, partial curve, poor fit]
25 | CCOC(=O)C1CCCN(Cc2cc(=O)oc3cc(C)c(C(C)C)cc23)C1 (stereo unspecified) | inconclusive [inhibitor, partial curve, poor fit]
26 | COc1cccc(C2Nc3ccccc3C(=O)N2c2ccc(F)cc2)c1O (stereo unspecified) | inactive
27 | CC(C)Sc1nc2ccc(Br)cc2[nH]1 | inactive
28 | O=C(CN1CCN(c2ccc(F)cc2)CC1)Nc1ccc(F)c(F)c1 | inconclusive [inhibitor, partial curve, poor fit]
29 | CCCOc1ccccc1C(=O)N(Cc1cccc(Br)c1)C1CCS(=O)(=O)C1 (stereo unspecified) | inconclusive [inhibitor, partial curve, poor fit]
30 | Cc1cccc(CN2CCN(CC(=O)NCCc3ccc(Cl)cc3)C2=O)c1 | inconclusive [inhibitor, single point]
31 | COc1cc(/C=C(\C#N)c2ccccn2)cc(OC)c1O | inactive
32 | CCN(CC)CCCC(C)NC(=O)c1cccc(S(=O)(=O)N2CCc3ccccc32)c1 (stereo unspecified) | inconclusive [inhibitor, partial curve, poor fit]
33 | COc1ccccc1-c1cc(C(=O)N2CCCc3ccccc32)no1 | inconclusive [inhibitor, partial curve, poor fit]
34 | Cc1c(C(=O)Nc2ccc(Oc3ccccc3)cc2)sc2nc3n(c(=O)c12)CCC3 | inconclusive [inhibitor, partial curve, poor fit]
35 | Cn1nnnc1Sc1ncnc2scc(-c3ccccc3)c12 | inconclusive [inhibitor, partial curve, poor fit]
36 | COc1ccc(C)cc1N(C(=O)c1ccccc1)c1nc2ccccc2s1 | inconclusive [inhibitor, partial curve, poor fit]
37 | C(#CSCc1ccccc1)SCc1ccccc1 | inconclusive [inhibitor, single point]
38 | O=C(/C=C/c1ccc(S(=O)(=O)N2CCOCC2)cc1)Nc1cc(F)ccc1F | inconclusive [inhibitor, partial curve, poor fit]
39 | COC(=O)c1cn(CC(=O)N2C(C)CCCC2C)c2ccccc12 (stereo unspecified) | inconclusive [inhibitor, single point]
40 | NC(=S)N/N=C/c1c(O)c(Br)cc2oc3c(c12)CCCC3 | inconclusive [inhibitor, full curve, poor fit]
41 | COc1ccc(C)cc1N1C(=N)/C(=C2/Nc3ccccc3S2)C(c2ccccc2)C1=O (stereo unspecified) | inconclusive [inhibitor, partial curve, poor fit]
42 | CCN1CCN(CCC2Oc3cc([N+](=O)[O-])ccc3NC2=O)CC1 (stereo unspecified) | inactive
43 | Cc1[nH]c2ccccc2c1NC(=O)CN1CCN(c2cccc(C(F)(F)F)c2)CC1 | inconclusive [inhibitor, partial curve, poor fit]
44 | COc1ccc(NS(=O)(=O)c2c(C)cc(C)cc2C)cc1 | inconclusive [inhibitor, single point]

Row | SMILES | Potency
45 | Cc1ccc(NC(=O)c2ccc3nsnc3c2)c(Cl)c1 | inactive
46 | O=C(CSCc1ccccc1Br)NNC(=S)NCc1ccco1 | inconclusive [inhibitor, single point]
47 | CC(=O)Nc1cccc(N/C(N)=N/c2nc(C)cc(C)n2)c1 | inactive
48 | CCN(CC)S(=O)(=O)c1ccc(NC2c3ncccc3C(=O)N2Cc2ccccc2)cc1 (stereo unspecified) | inactive
49 | COc1ccc(NC(=O)c2oc3ccccc3c2NC(=O)c2ccc(OC)c(OC)c2)c(OC)c1 | inactive
50 | COc1ccc(OC)c(NC(=O)CC(=O)Nc2ccc3nc4n(c(=O)c3c2)CCCCC4)c1 | inactive
51 | COc1cc(/C=C/C(=O)NCCn2c(C)cc3ccccc32)cc(OC)c1OC | inconclusive [inhibitor, single point]
52 | CCOc1ccccc1C(=O)N1CCC(c2nc3ccccc3o2)CC1 | inactive
53 | Cc1ccc(C)c(OCC(=O)Nc2ccc(C(=O)O)cc2NC(=O)COc2cc(C)ccc2C)c1 | inconclusive [inhibitor, single point]
54 | CC(C)(C)NC(=S)NC(=O)C12CCC3CC(CC(C3)C1)C2 | inconclusive [inhibitor, full curve, poor fit]
55 | Cc1cc(N=Nc2ccc3ccccc3c2)ccc1O | inconclusive [inhibitor, single point]
56 | Cc1ccc(OCCCC(=O)N(C)CC(=O)Nc2ccccc2Cl)cc1 | inconclusive [inhibitor, partial curve]
57 | COc1ccc(N2CCN(CCC(O)c3ccc4ccccc4c3)CC2)cc1 (stereo unspecified) | inconclusive [inhibitor, single point]
58 | C=CCc1cccc(Cl)c1OCCCNC1CCCC1 | inconclusive [inhibitor, partial curve, poor fit]
59 | CC(C)(CO)NCC(O)COc1ccc2c(c1)CCC2 (stereo unspecified) | inconclusive [inhibitor, partial curve, poor fit]
60 | CC(C)(C)C1c2[nH]c3ccccc3c2CCN1CCCn1cccn1 (stereo unspecified) | inconclusive [inhibitor, single point]
61 | CCOC(=O)C1=C(C)N(C)C(C)=C(C(=O)OCC)C1c1ccc(C(=O)OC)cc1 | inconclusive [inhibitor, partial curve, poor fit]
62 | COc1ccc(-c2noc(CN(C)S(=O)(=O)c3ccc(C)cc3)n2)cc1 | inconclusive [inhibitor, partial curve, poor fit]
63 | COc1cccc(NC(=S)N(Cc2ccccn2)Cc2ccccc2Cl)c1 | inconclusive [inhibitor, partial curve, poor fit]
64 | CN(C)S(=O)(=O)c1cc(NC(=O)CN2CCN(c3ccccc3F)CC2)ccc1Cl | inconclusive [inhibitor, single point]
65 | Cc1ccsc1CN(C)CC(=O)Nc1ccc([N+](=O)[O-])cc1Cl | inconclusive [inhibitor, partial curve, poor fit]
66 | Cc1c(C=O)c2ccccc2n1CC(=O)NC(C)c1ccccc1 (stereo unspecified) | inconclusive [inhibitor, partial curve, poor fit]
